Measurements as given in the supplement of paper PMC10126150.
Sequences with one replicate were seen in a single cluster, so their values are uncertain.

Tested on: ATP
Experiment: switch fluorescence ratio, 500 uM ATP over buffer (Cy3 cluster intensity, sum of 5 cycles each) (fold (ratio)); higher = stronger signal-on switching upon ATP binding; sequences stand for … in TCGTCGGCAGCGTCAGATGTGTATAAGAGACAGTTTTTTTTTTTTTTTTTTTTTTTTT…TC
Details: aptamer strand: ATP DNA aptamer (quencher-CACCTGGGGGAGTATTGCGGAGGAAGG + anchor), 100 nM annealed; ATP concentration: 500 uM; one replicate
Procedure, shortened: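 Clusters with intensities outside 100-1000 RFU were excluded. The remaining Cy3-labelled switching-strand clusters on a modified Illumina MiSeq flow-cell had been annealed to 100 nM quencher-labelled ATP aptamer and imaged in selection buffer, then after 15 min with 500 uM ATP at 22 °C, for five cycles separated by NaOH stripping and re-annealing. The fluorescence ratio, averaged per switch-domain sequence, is each cluster's summed target-cycle Cy3 intensity over its summed buffer-cycle Cy3 intensity.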
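Note: ATP exposure 15 min at 22 °C before imaging.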

Row | Sequence | switch fluorescence ratio
1 | ATACCACATT | 1.08
2 | ATACCATGCT | 0.998
3 | ATACCCAGAT | 1.03
4 | ATACCGCTAA | 1.61
5 | ATACCGTGT | 0.997
6 | ATACCTAGAC | 1.03
7 | ATACCTGCTG | 1.01
8 | ATACGAAGGT | 1.02
9 | ATACGAATTA | 0.992
10 | ATACGACTAG | 0.963
11 | ATACGGTGAA | 1.01
12 | ATACGTGAGG | 1.02
13 | ATACTAAGGC | 1.03
14 | ATACTCGGC | 1.08
15 | ATACTGACGA | 1.35
16 | ATACTGTTGC | 0.999
17 | ATAGAAAAGT | 1.03
18 | ATAGAAACCG | 1.1
19 | ATAGAAAGTT | 0.999
20 | ATAGAGATAA | 0.982
21 | ATAGAGGCCA | 1.03
22 | ATAGAGTCCT | 0.958
23 | ATAGCATTCA | 0.969
24 | ATAGCCATAA | 1.04
25 | ATAGCGGATC | 1.03
26 | ATAGCGGTAT | 1.05

Row | Sequence | switch fluorescence ratio
27 | ATAGCGGTTA | 0.998
28 | ATAGCTAGA | 0.993
29 | ATAGCTTACC | 1.14
30 | ATAGCTTGGA | 0.984
31 | ATAGGAGCGG | 1.08
32 | ATAGGATTGG | 0.998
33 | ATAGGCATAA | 1.04
34 | ATAGGCCAAT | 0.996
35 | ATAGGCGGGG | 0.979
36 | ATAGGCGTAT | 0.979
37 | ATAGGGACCA | 1.06
38 | ATAGGGGGG | 1.03
39 | ATAGGGGTAG | 0.975
40 | ATAGGGTCTT | 0.975
41 | ATAGGTATCA | 0.994
42 | ATAGGTCGTG | 0.973
43 | ATAGGTGGAC | 1.02
44 | ATAGGTGGTA | 0.98
45 | ATAGGTTGGT | 0.988
46 | ATAGTAAGAA | 0.996
47 | ATAGTAGTT | 0.965
48 | ATAGTATAAA | 0.99
49 | ATAGTATTCG | 0.968
50 | ATAGTCAG | 1.02
51 | ATAGTCGTAG | 1.02
52 | ATAGTCTAT | 0.988

Row | Sequence | switch fluorescence ratio
53 | ATAGTGATAG | 1.07
54 | ATAGTGCACC | 0.973
55 | ATAGTTAGCA | 0.991
56 | ATAGTTTATA | 0.986
57 | ATAGTTTCC | 1.03
58 | ATATAACGTA | 1.11
59 | ATATAACGTG | 0.992
60 | ATATAACTAC | 1.03
61 | ATATAAGATA | 1.05
62 | ATATAATCCC | 1.05
63 | ATATACTTG | 1.05
64 | ATATAGAAGC | 1.01
65 | ATATAGGTCC | 1.06
66 | ATATAGTTGG | 0.985
67 | ATATATGAAG | 1.04
68 | ATATCCAAGC | 1.05
69 | ATATCCATTC | 1.01
70 | ATATCCCTAG | 1.01
71 | ATATCCGAGG | 1.05
72 | ATATCGCCTA | 0.994
73 | ATATCGCGGT | 0.988
74 | ATATCGCTCC | 1.11
75 | ATATCGTCCT | 0.997
76 | ATATCTCTAA | 1.01
77 | ATATCTCTGT | 0.989
78 | ATATCTTGCA | 1.07

Row | Sequence | switch fluorescence ratio
79 | ATATGATTTA | 0.953
80 | ATATGCAGTC | 1.02
81 | ATATGCATTA | 1.01
82 | ATATGCATTG | 1.03
83 | ATATGGATCT | 0.937
84 | ATATGGCATT | 0.988
85 | ATATGGTCGA | 1
86 | ATATGGTGT | 0.997
87 | ATATGTATCG | 1
88 | ATATGTATTC | 0.974
89 | ATATGTCCAA | 1.01
90 | ATATGTTCTT | 0.99
91 | ATATTAAAGG | 0.953
92 | ATATTAAGGA | 0.984
93 | ATATTACAAA | 1.02
94 | ATATTATGG | 0.973
95 | ATATTCAGTC | 1.02
96 | ATATTCCATT | 0.974
97 | ATATTCTCGC | 1.02
98 | ATATTCTTT | 1.01
99 | ATATTGATTG | 0.963
100 | ATATTGCCGG | 1.04
101 | ATATTTACGC | 1.09
102 | ATATTTCGG | 0.986
103 | ATATTTGCGG | 0.994
104 | ATATTTGTAC | 1.01

Row | Sequence | switch fluorescence ratio
105 | ATATTTTTCA | 0.966
106 | ATCAAACCAG | 1.04
107 | ATCAAACCTC | 1.12
108 | ATCAAAGGCC | 0.971
109 | ATCAACGACG | 1.05
110 | ATCAATAGGG | 0.964
111 | ATCACAGCTT | 1.01
112 | ATCACAGTCT | 1.07
113 | ATCACCTAGC | 1.08
114 | ATCACGAGA | 1.04
115 | ATCACGCGCG | 1.03
116 | ATCACGGGTG | 1.54
117 | ATCAGACTTT | 0.953
118 | ATCAGAGAGT | 0.989
119 | ATCAGCAGGT | 1.02
120 | ATCAGCCACA | 0.979
121 | ATCAGTCAAT | 1.15
122 | ATCAGTTAGT | 0.991
123 | ATCAGTTTGT | 1.02
124 | ATCATAGAGT | 1
125 | ATCATCTGTT | 1.02
126 | ATCATGATAA | 1.02
127 | ATCATGCAAA | 1.02
128 | ATCATGGTTT | 1.03
129 | ATCATGTAAG | 1.02
130 | ATCATGTAAT | 0.995

Row | Sequence | switch fluorescence ratio
131 | ATCATGTCGA | 1.01
132 | ATCATGTGAA | 0.981
133 | ATCATTGAGT | 0.977
134 | ATCATTGGAT | 0.99
135 | ATCCAAACTC | 1.06
136 | ATCCACGGTA | 1.19
137 | ATCCAGAACT | 1
138 | ATCCAGAGTG | 1.65
139 | ATCCCAGAG | 1.12
140 | ATCCCAGTTG | 1.78
141 | ATCCCATACT | 1.19
142 | ATCCCCCCGC | 1.72
143 | ATCCCGCCCC | 1.57
144 | ATCCCTACTT | 0.99
145 | ATCCCTCTTT | 1.03
146 | ATCCCTGGGC | 1.05
147 | ATCCCTTGCG | 1
148 | ATCCGAAGGT | 0.999
149 | ATCCGATAAG | 0.999
150 | ATCCGATCGA | 1.02
151 | ATCCGATTCG | 0.973
152 | ATCCGGAGAG | 1.13
153 | ATCCGGGGTC | 1.08
154 | ATCCGGGTTG | 0.997
155 | ATCCGGTGCT | 1.1
156 | ATCCGGTGGG | 1.02

Row | Sequence | switch fluorescence ratio
157 | ATCCGTGCCT | 1.04
158 | ATCCTCAAGT | 1.05
159 | ATCCTCAGCC | 1.64
160 | ATCCTGAGAA | 0.964
161 | ATCCTGGAGG | 0.984
162 | ATCCTGTATA | 0.988
163 | ATCCTTAGTT | 1.05
164 | ATCCTTTGGT | 0.956
165 | ATCGAAATGC | 2.66
166 | ATCGAAGTGC | 1.09
167 | ATCGAGATGG | 0.997
168 | ATCGAGGCAA | 4.88
169 | ATCGATATGG | 1.01
170 | ATCGATCTTT | 0.978
171 | ATCGATTCCG | 1.03
172 | ATCGATTGAA | 0.945
173 | ATCGCACCCT | 1.19
174 | ATCGCAGGTA | 0.962
175 | ATCGCCCTG | 1
176 | ATCGCCGTGA | 1.05
177 | ATCGCCTGAG | 1.08
178 | ATCGCTACCG | 0.983
179 | ATCGCTGG | 1.01
180 | ATCGGATCGC | 1.05
181 | ATCGGCGGAC | 1.14
182 | ATCGGGAGGC | 0.953

Row | Sequence | switch fluorescence ratio
183 | ATCGGGATGT | 0.994
184 | ATCGGGCGT | 0.966
185 | ATCGGTGGAT | 0.992
186 | ATCGTAGTTT | 0.976
187 | ATCGTATGAG | 0.964
188 | ATCGTATGTG | 1.12
189 | ATCGTCAAAC | 1.44
190 | ATCGTCGAC | 1
191 | ATCGTCGAGA | 1.01
192 | ATCGTCTCAA | 1
193 | ATCGTGGCGG | 0.991
194 | ATCGTTCACG | 0.985
195 | ATCGTTGTTA | 0.997
196 | ATCGTTTTTC | 1.03
197 | ATCTAACAGG | 1.06
198 | ATCTACGCTG | 1.11
199 | ATCTATCCGG | 0.979
200 | ATCTATTGTC | 0.993
201 | ATCTCGGCGA | 1.25
